In all, about 33,000 sequences were measured (“E-score (-0.5 to 0.5)”: median about -0.01, highest 2% from about 0.26 on). Some of the results follow.
molecular target: Ste12 (UniProt P13574); assay: PBM E-score (8-mer binding enrichment) (E-score (-0.5 to 0.5)); higher = stronger / more preferred TF binding; most listed sequences are background and not binding sites; conditions: protein concentration: 200 nM; construct: GST-DNA-binding domain
Method in brief: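 The E-score, a modified Wilcoxon-Mann-Whitney statistic, was computed by the Universal PBM Analysis Suite for every ungapped eight-base word pooled with its reverse complement. Scans behind it were normalised with masliner after bound GST-tagged yeast transcription factors were detected with fluorescent anti-GST. The proteins, at about 100-200 nM, had been applied to universal all-10-mer Agilent arrays made double-stranded by primer extension.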

Sequence	PBM E-score
ACTCGACA	0.00181
CTTTATAA	0.153
ACTGGTAT	-0.14
AAAGGGAC	-0.0471
ATTTCGGG	-0.12
ACGCTCAT	-0.0693
CGCTACGC	-0.228
GGTCTGCA	-0.0319
CGAACTTC	-0.111
CATGATAG	0.049
CAAAGCGA	0.0708
CCTTGCTC	-0.0796
AATTCGTG	0.023
ATGCACAC	-0.161
CCCACGGA	-0.11
AGATTAAT	0.0881
AAGGGTGT	0.0285
ATGGTACG	0.00709
GGTCTCAC	0.0358
AACGAGAG	0.0712
TAGAGCTA	-0.128
AATACGGA	0.067

Sequence	PBM E-score
GGCGCCTA	0.0309
CTTTGTTC	0.227
GTCTGAAA	0.314
AACCGTAA	0.0346
CAGATTAA	0.238
CTCGGACC	-0.0902
GAATAATC	0.00357
ACCCCAGA	-0.0601
AGCTGCCG	0.0275
GTCTACAA	-0.138
AGACCCAG	-0.117
ACCCGCCA	-0.0831
CCGTTCCG	0.0117
CGATGTAC	0.0035
ACAAGCAA	-0.00365
AAGGACGG	-0.176
CAGCCTGC	-0.107
CTAAGCGC	0.0248
GCCCATAC	-0.0724
AAATCTAT	0.196
ACCGGAAA	0.109
GGATTTAA	0.243

Sequence	PBM E-score
CTGTGATC	-0.191
TCCCCCAA	-0.0923
TGGCGGAA	-0.112
CATGACTC	-0.104
CTGGTGCA	-0.0475
CAGAGCAA	0.0905
CCGGAACC	0.0511
CTACTCGC	-0.0337
CCGACCAG	-0.138
TGCTGCAA	0.0531
ATAGGTGA	-0.0202
GATTATAC	0.0507
AAGCCAGG	-0.177
ATCCCCGC	0.249
CTGTCCCC	-0.0882
GACACCAA	0.108
CGCCGGAA	0.0651
AACCTTGA	0.0675
ACCGGCCT	-0.0798
CAGCCAGC	-0.158
ATAAGACC	0.106
GGCGTCCC	-0.00088

Sequence	PBM E-score
ATAATCTA	0.136
CGCCCTAA	-0.0721
CATACGTC	-0.00573
ACCGCGCC	-0.034
AGTGAACC	-0.0809
CACGAAAG	0.095
GTCTTAAA	0.0648
CAGAAGTC	-0.15
TATAGCAA	0.0525
GACTGTCA	-0.139
CAAGGGAA	-0.161
CTTTAATC	0.108
ACGTAGCT	-0.285
GCAGCGCC	-0.00626
ACTTTTTA	0.198
AAGATAAC	0.0268
TGCCCTAA	-0.22
CGGTGTCC	-0.209
CTGGGTGA	-0.118
GCAACGCA	-0.148
